In all, about 310,000 compounds went through this assay and about 2,200 (0.71%) showed an effect of 50% or more. Effects have a minus sign here. The list shows a part of the results.
Target: human ether-à-go-go-related gene (hERG) potassium channel (human, UniProt Q12809)
Assay: primary screen, population patch clamp on CHO cells stably expressing hERG

human ether-à-go-go-related gene (hERG) potassium channel, sequence (Q12809 whole entry, looked up): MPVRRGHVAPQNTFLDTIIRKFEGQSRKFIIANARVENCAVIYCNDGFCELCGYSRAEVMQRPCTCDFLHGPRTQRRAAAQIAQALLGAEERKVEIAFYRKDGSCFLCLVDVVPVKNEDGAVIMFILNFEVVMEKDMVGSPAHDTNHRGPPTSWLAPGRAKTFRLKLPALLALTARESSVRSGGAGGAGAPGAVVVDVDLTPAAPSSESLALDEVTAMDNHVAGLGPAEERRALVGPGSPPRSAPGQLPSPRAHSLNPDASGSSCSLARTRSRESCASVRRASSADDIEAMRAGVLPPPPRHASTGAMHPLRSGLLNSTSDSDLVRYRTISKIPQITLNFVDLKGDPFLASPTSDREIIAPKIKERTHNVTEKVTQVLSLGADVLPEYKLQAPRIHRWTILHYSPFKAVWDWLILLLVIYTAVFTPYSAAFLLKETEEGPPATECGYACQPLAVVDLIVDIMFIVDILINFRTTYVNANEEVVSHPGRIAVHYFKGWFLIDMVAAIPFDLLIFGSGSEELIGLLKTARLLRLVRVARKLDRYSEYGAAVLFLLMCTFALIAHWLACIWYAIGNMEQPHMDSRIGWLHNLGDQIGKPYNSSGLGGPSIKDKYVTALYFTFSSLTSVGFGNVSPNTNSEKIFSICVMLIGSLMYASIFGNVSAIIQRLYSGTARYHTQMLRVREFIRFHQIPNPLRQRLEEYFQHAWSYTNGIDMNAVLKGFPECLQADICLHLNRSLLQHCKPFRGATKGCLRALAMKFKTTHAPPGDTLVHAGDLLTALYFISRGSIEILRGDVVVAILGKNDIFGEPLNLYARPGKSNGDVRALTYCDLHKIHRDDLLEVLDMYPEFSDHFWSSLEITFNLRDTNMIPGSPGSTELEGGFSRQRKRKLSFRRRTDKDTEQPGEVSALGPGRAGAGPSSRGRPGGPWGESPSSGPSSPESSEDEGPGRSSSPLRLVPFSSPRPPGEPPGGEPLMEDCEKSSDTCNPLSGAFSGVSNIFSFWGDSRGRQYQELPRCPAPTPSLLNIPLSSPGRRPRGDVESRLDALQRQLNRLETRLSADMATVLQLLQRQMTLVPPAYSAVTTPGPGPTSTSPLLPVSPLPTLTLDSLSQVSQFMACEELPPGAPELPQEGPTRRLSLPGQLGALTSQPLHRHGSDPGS

| Compound | hERG current change (%, negative = inhibition) at 1uM [%] |
| --- | --- |
| Cc1c(C(=O)O)sc2ncn(C)c(=O)c12 | 10.7 |
| CCCCCCCCC(=O)NCCOc1ccc(OC)cc1 | -6.71 |
| CC(=O)Nc1nc(CC(C)C)cc(-c2ccccc2)c1C#N | 12.2 |
| CC(C)(O)C#Cc1ccc(C(=O)N2CCN(C(=O)c3ccco3)CC2)cc1 | 11 |
| CCN1CCCC1CNC(=O)c1cc(S(=O)(=O)N(C)C)ccc1Cl (stereo not shown) | 13.5 |
| COc1ccccc1NC(=O)/C(=C/c1ccncc1)NC(=O)c1ccccc1 | 10.8 |
| CCOc1cc(CNCCSc2nnnn2C)cc(Br)c1OCc1ccccc1F.Cl | 13.3 |
| Cc1nc(SCc2ccc(O)c([N+](=O)[O-])c2)n[nH]1 | 15.1 |
| COc1cc(OC)cc(C(=O)NCCCN2CCN(CCCNC(=O)c3cc(OC)cc(OC)c3)CC2)c1 | -18.8 |
| CSCCC(NC(=O)c1ccccc1Cl)C(=O)Nc1ccc(C)c(S(=O)(=O)N2CCOCC2)c1 (stereo not shown) | 3.25 |
| CCCCNC(=O)COC(=O)c1cc(F)c(F)cc1Cl | 13.8 |
| CCn1nc(C)c(CN2CCC(C(=O)Nc3cccc(-c4cccc(Cl)c4)c3)CC2)c1C | 7.37 |
| CCCCN(CC)C(=O)Cn1cnc2ccc(S(=O)(=O)N3CCC(C)CC3)cc2c1=O | -5.79 |
| O=C(O)c1ccccc1NS(=O)(=O)c1ccccc1C(F)(F)F | 5.14 |
| Cc1cc(C)c2nc(N3CCC(C(=O)NCCN4CCOCC4)CC3)sc2c1 | 1.2 |
| N#Cc1ccc(C(=O)Nc2ccn(-c3ccccc3)n2)cc1 | -0.704 |
| Cc1ccc(S(=O)(=O)N(C)C)cc1NC(=S)NNC(=O)C1CC1 | -9.82 |
| Cc1ccc2nc(C)c(C(=O)N/N=C/c3cccc([N+](=O)[O-])c3)cc2c1 | -3.87 |
| CCc1cc(C(=O)c2ccc(OC)cc2)c(NC(=O)CCC(=O)O)s1 | 11.4 |
| O=C(Nc1ccc2c(c1)CCC2)c1cc2ccccc2o1 | 13.8 |
| O=C(N/N=C1/CC2CCC1C2)c1cc2ccccc2cc1O (stereo not shown) | 17.2 |
| CCN1CCN(C(c2ccccc2)c2nnnn2Cc2ccccc2)CC1.Cl (stereo not shown) | -2.83 |

| Compound | hERG current change (%, negative = inhibition) at 1uM [%] |
| --- | --- |
| COc1cccc(NC(=O)CSCc2n[nH]c(=O)[nH]2)c1 | 11.8 |
| Cc1c(C(=O)N2CCOCC2)sc(NC(=O)c2ccc3c(c2)OCO3)c1C#N | 13.7 |
| O=C(COc1ccc(S(=O)(=O)N2CCCC2)cc1[N+](=O)[O-])N1CCCC1 | 7.43 |
| CCCC1(C(=O)OCC)NC(c2ccc(OC)cc2OC)C2C(=O)N(c3ccccc3)C(=O)C21 (stereo not shown) | 7.43 |
| Cc1csc(NC(=O)c2ccc(C)o2)n1 | 5.73 |
| O=C(N/C(=C\c1ccco1)C(=O)N1CCCC1)c1cccs1 | 1.3 |
| CC(=O)c1ccc(NC(=O)CN2C(=O)NC(C)(c3ccc4c(c3)OCCO4)C2=O)cc1 (stereo not shown) | 10.1 |
| Cc1c(NC(=O)CSc2nnc(-c3ccco3)n2-c2ccccc2)c(=O)n(-c2ccccc2)n1C | 3.63 |
| COc1ccc(C)cc1NC(=O)C(Sc1ccccc1)c1ccccc1 (stereo not shown) | 12 |
| Cc1ccc(C)c(CN2CCC(CNC(=O)CCc3nnc4ccc(N5CCCCC5)nn34)CC2)c1 | 8.3 |
| CC(=O)NC1Sc2ccccc2N=C1c1ccccc1 (stereo not shown) | 9.79 |
| COC(=O)C1C(=O)OC(C)(C)C1C(C)C(=O)c1ccc(C)cc1C (stereo not shown) | 6.78 |
| O=c1cc(CN2CCN(c3ccccc3)CC2)c2c(ccc3ccccc32)o1 | -26.3 |
| Cc1ccc(NC(=S)c2ccncc2)cc1 | 11.6 |
| COc1ccc(Cl)cc1NC(=O)C/C(C)=N/NC(=O)c1ccccc1[N+](=O)[O-] | 8.81 |
| NC(=O)COc1ccc(-n2cnnn2)cc1 | 15.5 |
| Cc1cccc(C(=O)c2c(N)sc3c2CCC(C)C3)c1 (stereo not shown) | 9.12 |
| COc1ccc(CNC(=O)C(=O)NCC(c2ccco2)N2CCOCC2)cc1 (stereo not shown) | 2.42 |
| COc1ccc(C(=O)NCC(=O)OCc2nc(N)nc(Nc3ccccc3C)n2)cc1 | -15.5 |
| CCCN1CCN(CCCNC(=O)c2ccc(CS(=O)c3ccc(OC)cc3)o2)CC1 (stereo not shown) | 5.86 |
| COCc1ccc([C@@H]2C[C@H]3CN(Cc4cccc(Cl)c4)C(=O)[C@]34CCCN24)o1 | -2.14 |
| CN(N)c1ccc2c(C(F)(F)F)cc(C(F)(F)F)nc2n1 | 12.7 |

| Compound | hERG current change (%, negative = inhibition) at 1uM [%] |
| --- | --- |
| COc1cccc(CNC(=O)CN2C(=O)CSc3ccc(S(=O)(=O)N4CCCCC4)cc32)c1 | 4.94 |
| COc1ccc(CC2(CO)CCN(Cc3ccc(OC(F)(F)F)cc3)CC2)cc1 | -57.5 |
| Cc1ccccc1C(=O)NCCCc1ccccc1 | 14.6 |
| CC(O)CCC(=O)NNC1CC(=O)N(c2ccccc2)C1=O (stereo not shown) | 11.3 |
| CC(=O)c1c(C)[nH]c(C(=O)N2CCN(c3ncccn3)CC2)c1C | 9.11 |
| Cc1cccn2c(=O)c3cc(C(=O)NCCN4CCOCC4)c(=N)n(Cc4ccc(F)cc4)c3nc12 | -13.3 |
| CC1=CC(=C(C#N)c2nc3ccccc3s2)C=C(C)N1c1ccc(F)cc1F | 21.1 |
| CCN1C(=O)CC(N2CCN(c3ccc(Cl)cc3)CC2)C1=O (stereo not shown) | 2.82 |
| O=C(CN1C(=O)COc2ccccc21)N(Cc1cccnc1)Cc1cccc(F)c1 | -8.39 |
| O=[N+]([O-])c1ccc(N/N=C/c2ccccc2)cc1 | 12.5 |
| Cc1ccc(NC(=O)c2cc(NC(=O)C3CC=CCC3C(=O)O)ccc2N2CCOCC2)cc1Cl (stereo not shown) | 5.76 |
| OCCNc1nc(Nc2ccccc2C(F)(F)F)nc(N2CCCC2)n1 | -3.26 |
| O=C(Nc1nccs1)c1cccc(NC(=O)c2ccco2)c1 | 4.79 |
| Cc1ccc(C(C)NC(=O)c2cc(C)oc2C)cc1 (stereo not shown) | -11.5 |
| CCCC(=O)NC(c1cccs1)c1cc([N+](=O)[O-])c2cccnc2c1O (stereo not shown) | 3.68 |
| CC(C)COC(=O)n1c(SCC(N)=O)nc2ccccc21 | 9.69 |
| CNCC(O)C(O)C(O)C(O)CO (stereo not shown) | 7.67 |
| Cc1cccnc1NC(=O)CCc1nnc2ccc(N3CCC4(CC3)OCCO4)nn12 | 9.8 |
| CCN(CC(=O)Nc1c(F)cccc1F)C(=O)c1ccc(N2CCCC2)c([N+](=O)[O-])c1 | 5.73 |
| C=C(C)c1cccc(C(C)(C)NC(=O)N2CCC(C(N)=O)CC2)c1 | 6.76 |
| CCN(C(=O)c1ccco1)c1nc(-c2ccc(OC)cc2)cs1 | 9.4 |
| Cc1ccc(NC(=O)CCS(=O)(=O)c2cccc3nonc23)c(Cl)c1 | 11.5 |

| Compound | hERG current change (%, negative = inhibition) at 1uM [%] |
| --- | --- |
| Cc1ccc(NC(=O)Cn2ccsc2=N)cc1S(=O)(=O)N(C)C.Cl | 2.73 |
| CC(OC(=O)c1ccccc1NCCO)C(=O)Nc1ccc(S(=O)(=O)N2CCOCC2)cc1 (stereo not shown) | 11.6 |
| CCCCN(C(=O)C1=COCCO1)c1c(N)n(CCC)c(=O)[nH]c1=O | 9.14 |
| COc1cccc(NC(=O)c2ccc3c(c2)CCN3S(C)(=O)=O)c1 | 14.2 |
| O=C(Nc1ccnn1C1CCN(C/C=C/c2ccccc2)CC1)c1ccccc1Cl | -92.1 |
| COc1nc(C)nc(C)c1Oc1ccc(Cl)cc1Cl | 12.8 |
| CC(=O)Nc1cccc(C(=O)/C=C/c2ccc(F)cc2)c1 | 3.76 |
| O=C(O)CCCN1C(=O)C2C3CC(C2C1=O)C1C(c2ccccc2)c2sc(=O)[nH]c2SC31 (stereo not shown) | 4.78 |
| CCOc1ccc(C(=O)/C=C/c2ccc(SC)cc2)cc1 | -3.35 |
| CCCS(=O)(=O)c1c(S(=O)(=O)CCC)c2c(N)cccn2c1C(=O)c1ccc(F)cc1 | 9.49 |
| COc1ccc(C)cc1S(=O)(=O)NCC(c1ccc2c(c1)OCO2)N1CCOCC1 (stereo not shown) | 5.86 |
| O=C(/C=C/c1ccc2c(c1)OCO2)Nc1nc2ccccc2s1 | -0.327 |
| COC(=O)CSc1nnc(CNC(=O)c2cccc(C)c2)n1-c1ccccc1OC | 13.2 |
| Cc1ccn2c(=O)nc(SCC(=O)N3CCCC3)nc2c1 | -1.63 |
| CCC(C)(C)C1CCc2c(sc(N)c2C(N)=O)C1 (stereo not shown) | -12.1 |
| Cc1ccc(C)c(NC(=O)c2ccc3ccccc3n2)c1 | -8.85 |
| CC(C)Sc1nc2c(c(=O)n1C)SC(C)C2 (stereo not shown) | 8.29 |
| CSc1nc(N)nc(SCC(=O)Nc2cccc(F)c2)c1C#N | 11.5 |
| COCCN(C(=O)COC(=O)CCOc1ccccc1C)c1c(N)n(Cc2ccccc2)c(=O)[nH]c1=O | 6.67 |
| CC(O)c1n(C)c(Cl)c[n+]1C.[I-] (stereo not shown) | 0.0498 |
| O=C(CN1C(=O)NC(c2ccccc2)(c2ccccc2)C1=O)NC1CCS(=O)(=O)C1 (stereo not shown) | 11.2 |
| CNC(=S)NNC(=O)c1cccs1 | 11.4 |
